Measurements taken from the supplement of paper PMC8728848.
The list shows a part of the results.

Legend:
Assay in all cases: glycan array binding signal (z-score within array); higher = stronger binding
Details in all cases: glycan notation: IUPAC condensed, linker removed
[1] = biological target: Neu5Ac(a2-6)Gal(b1-4)GlcNAc(b1-2)Man(a1-3)[Man(a1-6)]Man(b1-4)GlcNAc(b1-4)GlcNAc
Summary of the method: (§1)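 From the Consortium for Functional Glycomics database, 3228 arrays were curated, keeping only those whose protein sequence was available. Binding is given as a within-array Z-score averaged across arrays sharing a protein sequence and across linkers. Negative Z-scores can be read as non-binding.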

[2] = biological target: Neu5Ac(a2-6)Gal(b1-4)GlcNAc(b1-2)Man(a1-3)[Neu5Ac(a2-3)Gal(b1-4)GlcNAc(b1-2)Man(a1-6)]Man(b1-4)GlcNAc(b1-4)GlcNAc
Summary of the method: as §1

[3] = biological target: Neu5Ac(a2-6)Gal(b1-4)GlcNAc(b1-2)Man(a1-3)[Neu5Ac(a2-6)Gal(b1-4)GlcNAc(b1-2)Man(a1-6)]Man(b1-4)GlcNAc(b1-4)GlcNAc
Summary of the method: as §1

[4] = biological target: Neu5Ac(a2-6)Gal(b1-4)GlcNAc(b1-2)Man(a1-3)[Neu5Ac(a2-6)Gal(b1-4)GlcNAc(b1-2)Man(a1-6)]Man(b1-4)GlcNAc(b1-4)[Fuc(a1-6)]GlcNAc
Summary of the method: as §1

[5] = biological target: Neu5Ac(a2-6)Gal(b1-4)GlcNAc(b1-2)Man(a1-6)Man(b1-4)GlcNAc(b1-4)GlcNAc
Summary of the method: as §1

[6] = biological target: Neu5Ac(a2-6)Gal(b1-4)GlcNAc(b1-2)Man(a1-6)[Gal(b1-4)GlcNAc(b1-2)Man(a1-3)]Man(b1-4)GlcNAc(b1-4)GlcNAc
Summary of the method: as §1

[7] = biological target: Neu5Ac(a2-6)Gal(b1-4)GlcNAc(b1-2)Man(a1-6)[GlcNAc(b1-2)Man(a1-3)]Man(b1-4)GlcNAc(b1-4)GlcNAc
Summary of the method: as §1

[8] = biological target: Neu5Ac(a2-6)Gal(b1-4)GlcNAc(b1-2)Man(a1-6)[Man(a1-3)]Man(b1-4)GlcNAc(b1-4)GlcNAc
Summary of the method: as §1

[9] = biological target: Neu5Ac(a2-6)Gal(b1-4)GlcNAc(b1-2)[Neu5Ac(a2-6)Gal(b1-4)GlcNAc(b1-4)]Man(a1-3)[GlcNAc(b1-4)][Neu5Ac(a2-6)Gal(b1-4)GlcNAc(b1-2)[Neu5Ac(a2-6)Gal(b1-4)GlcNAc(b1-6)]Man(a1-6)]Man(b1-4)GlcNAc(b1-4)GlcNAc
Summary of the method: as §1

[10] = biological target: Neu5Ac(a2-6)Gal(b1-4)GlcNAc(b1-2)[Neu5Ac(a2-6)Gal(b1-4)GlcNAc(b1-4)]Man(a1-3)[GlcNAc(b1-4)][Neu5Ac(a2-6)Gal(b1-4)GlcNAc(b1-4)Man(a1-6)]Man(b1-4)GlcNAc(b1-4)GlcNAc
Summary of the method: as §1

[11] = biological target: Neu5Ac(a2-6)Gal(b1-4)GlcNAc(b1-2)[Neu5Ac(a2-6)Gal(b1-4)GlcNAc(b1-6)]Man(a1-6)[Neu5Ac(a2-6)Gal(b1-4)GlcNAc(b1-2)Man(a1-3)][GlcNAc(b1-4)]Man(b1-4)GlcNAc(b1-4)GlcNAc
Summary of the method: as §1

[12] = biological target: Neu5Ac(a2-6)Gal(b1-4)GlcNAc(b1-3)Gal(b1-3)GlcNAc
Summary of the method: as §1

[13] = biological target: Neu5Ac(a2-6)Gal(b1-4)GlcNAc(b1-3)Gal(b1-4)GlcNAc
Summary of the method: as §1

[14] = biological target: Neu5Ac(a2-6)Gal(b1-4)GlcNAc(b1-3)Gal(b1-4)GlcNAc(b1-2)Man(a1-3)[Neu5Ac(a2-6)Gal(b1-4)GlcNAc(b1-3)Gal(b1-4)GlcNAc(b1-2)Man(a1-6)]GalNAc
Summary of the method: as §1

[15] = biological target: Neu5Ac(a2-6)Gal(b1-4)GlcNAc(b1-3)Gal(b1-4)GlcNAc(b1-3)Gal(b1-4)GlcNAc
Summary of the method: as §1

[16] = biological target: Neu5Ac(a2-6)Gal(b1-4)GlcNAc(b1-3)Gal(b1-4)GlcNAc(b1-3)Gal(b1-4)GlcNAc(b1-2)Man(a1-3)[Neu5Ac(a2-6)Gal(b1-4)GlcNAc(b1-3)Gal(b1-4)GlcNAc(b1-3)Gal(b1-4)GlcNAc(b1-2)Man(a1-6)]GalNAc
Summary of the method: as §1

[17] = biological target: Neu5Ac(a2-6)Gal(b1-4)GlcNAc(b1-3)Gal(b1-4)GlcNAc(b1-3)GalNAc
Summary of the method: as §1

[18] = biological target: Neu5Ac(a2-6)Gal(b1-4)GlcNAc(b1-3)Gal(b1-4)GlcNAc(b1-3)[Neu5Ac(a2-6)Gal(b1-4)GlcNAc(b1-3)Gal(b1-4)GlcNAc(b1-6)]GalNAc
Summary of the method: as §1

[19] = biological target: Neu5Ac(a2-6)Gal(b1-4)GlcNAc(b1-3)Gal(b1-4)GlcNAc(b1-6)[Gal(b1-3)]GalNAc
Summary of the method: as §1

[20] = biological target: Neu5Ac(a2-6)Gal(b1-4)GlcNAc(b1-3)Gal(b1-4)[Fuc(a1-3)]GlcNAc(b1-3)Gal(b1-4)[Fuc(a1-3)]GlcNAc
Summary of the method: as §1

[21] = biological target: Neu5Ac(a2-6)Gal(b1-4)GlcNAc(b1-3)GalNAc
Summary of the method: as §1

[22] = biological target: Neu5Ac(a2-6)Gal(b1-4)GlcNAc(b1-3)[Neu5Ac(a2-6)Gal(b1-4)GlcNAc(b1-6)]GalNAc
Summary of the method: as §1

[23] = biological target: Neu5Ac(a2-6)Gal(b1-4)GlcNAc(b1-6)GalNAc
Summary of the method: as §1

[24] = biological target: Neu5Ac(a2-6)Gal(b1-4)GlcNAc(b1-6)[Gal(b1-3)GlcNAc(b1-3)]Gal(b1-4)Glc
Summary of the method: as §1

[25] = biological target: Neu5Ac(a2-6)Gal(b1-4)GlcNAc(b1-6)[Gal(b1-3)]GalNAc
Summary of the method: as §1

[26] = biological target: Neu5Ac(a2-6)Gal(b1-4)GlcNAc6S
Summary of the method: as §1

Neu5Ac(a2-6)GalNAc = biological target: Neu5Ac(a2-6)GalNAc
Summary of the method: as §1

[27] = biological target: Neu5Ac(a2-6)GalNAc(b1-4)GlcNAc
Summary of the method: as §1

[28] = biological target: Neu5Ac(a2-6)GalNAc(b1-4)GlcNAc6S
Summary of the method: as §1

[29] = biological target: Neu5Ac(a2-6)GlcNAc(b1-4)GlcNAc
Summary of the method: as §1

[30] = biological target: Neu5Ac(a2-6)GlcNAc(b1-4)GlcNAc(b1-4)GlcNAc
Summary of the method: as §1

B1: VLRB.aGPA.23-GCN4-biotin (Petromyzon marinus) (protein)
chain: ACPSQCSCSGTEVNCAGKSLASVPAGIPTTTRVLYLNSNQITKLEPGVFDRLANLRELHLWGNQLVSLPPGVFDNLANLEKLWLNSNQLTSLPAGLFDRLVNLEHLGLCCMKLTELPSGAFDKLTRLKQLGLDQNQLKSIPDGAFARLPSLTHVWLHTNPWDCQCTDILYLSGWVAQHSSIVGEGWPWRHSPDSAKCSGTNTPVRAVTEASTSPSKCP
For B1, the “glycan array binding signal (z-score)” value [1] was -0.082, the “glycan array binding signal (z-score)” value [2] was -0.077 and the “glycan array binding signal (z-score)” value [3] was -0.077. For the same binder, the “glycan array binding signal (z-score)” value [4] was -0.074, the “glycan array binding signal (z-score)” value [5] was -0.087 and the “glycan array binding signal (z-score)” value [6] was -0.071. The “glycan array binding signal (z-score)” value [7] was -0.083, the “glycan array binding signal (z-score)” value [8] was -0.078 and the “glycan array binding signal (z-score)” value [9] was -0.078. For the same binder, the “glycan array binding signal (z-score)” value [10] was -0.082, the “glycan array binding signal (z-score)” value [11] was -0.075 and the “glycan array binding signal (z-score)” value [12] was -0.086. For the same binder, the “glycan array binding signal (z-score)” value [13] was -0.081, the “glycan array binding signal (z-score)” value [14] was -0.06 and the “glycan array binding signal (z-score)” value [15] was -0.083. For the same binder, the “glycan array binding signal (z-score)” value [16] was -0.027, the “glycan array binding signal (z-score)” value [17] was -0.084 and the “glycan array binding signal (z-score)” value [18] was -0.021. For the same binder, the “glycan array binding signal (z-score)” value [19] was -0.072, the “glycan array binding signal (z-score)” value [20] was -0.08 and the “glycan array binding signal (z-score)” value [21] was -0.081. For the same binder, the “glycan array binding signal (z-score)” value [22] was -0.084, the “glycan array binding signal (z-score)” value [23] was -0.077 and the “glycan array binding signal (z-score)” value [24] was -0.084. The “glycan array binding signal (z-score)” value [25] was -0.077, the “glycan array binding signal (z-score)” value [26] was -0.08 and the “glycan array binding signal (z-score)” value (Neu5Ac(a2-6)GalNAc) was -0.079. For the same binder, the “glycan array binding signal (z-score)” value [27] was -0.087, the “glycan array binding signal (z-score)” value [28] was -0.067 and the “glycan array binding signal (z-score)” value [29] was -0.085. The “glycan array binding signal (z-score)” value [30] was -0.087.
